Test results: PubChem BioAssay AID504333 (National Center for Advancing Translational Sciences (NCATS), 2011)
In all, about 360,000 compounds went through this assay and about 16,000 (4.4%) were called active. This list was built around the results that the source calls inconclusive (neither active nor inactive); the mix of calls is not that of the screen. Calls come from the whole dose curve; as a rule, active = well fitted inhibition curve with a large enough effect; inconclusive = small, poorly fitted or top-dose-only effect; inactive = no such curve, though single readings can be large or run the other way. Potencies of inconclusive entries are doubtful fits and often do not repeat.

biological target: Bromodomain adjacent to zinc finger domain protein 2B (Homo sapiens) (UniProt Q9UIF8); assay: qHTS Assay for Inhibitors of BAZ2B; conditions: AlphaScreen BAZ2B-H3K14Ac peptide displacement; series mostly up to 114 µM; note: nearly all actives have a fitted effect of over 60% in size
UniProt Q9UIF8, sequence (Q9UIF8 whole entry, looked up, the tested form may be a part): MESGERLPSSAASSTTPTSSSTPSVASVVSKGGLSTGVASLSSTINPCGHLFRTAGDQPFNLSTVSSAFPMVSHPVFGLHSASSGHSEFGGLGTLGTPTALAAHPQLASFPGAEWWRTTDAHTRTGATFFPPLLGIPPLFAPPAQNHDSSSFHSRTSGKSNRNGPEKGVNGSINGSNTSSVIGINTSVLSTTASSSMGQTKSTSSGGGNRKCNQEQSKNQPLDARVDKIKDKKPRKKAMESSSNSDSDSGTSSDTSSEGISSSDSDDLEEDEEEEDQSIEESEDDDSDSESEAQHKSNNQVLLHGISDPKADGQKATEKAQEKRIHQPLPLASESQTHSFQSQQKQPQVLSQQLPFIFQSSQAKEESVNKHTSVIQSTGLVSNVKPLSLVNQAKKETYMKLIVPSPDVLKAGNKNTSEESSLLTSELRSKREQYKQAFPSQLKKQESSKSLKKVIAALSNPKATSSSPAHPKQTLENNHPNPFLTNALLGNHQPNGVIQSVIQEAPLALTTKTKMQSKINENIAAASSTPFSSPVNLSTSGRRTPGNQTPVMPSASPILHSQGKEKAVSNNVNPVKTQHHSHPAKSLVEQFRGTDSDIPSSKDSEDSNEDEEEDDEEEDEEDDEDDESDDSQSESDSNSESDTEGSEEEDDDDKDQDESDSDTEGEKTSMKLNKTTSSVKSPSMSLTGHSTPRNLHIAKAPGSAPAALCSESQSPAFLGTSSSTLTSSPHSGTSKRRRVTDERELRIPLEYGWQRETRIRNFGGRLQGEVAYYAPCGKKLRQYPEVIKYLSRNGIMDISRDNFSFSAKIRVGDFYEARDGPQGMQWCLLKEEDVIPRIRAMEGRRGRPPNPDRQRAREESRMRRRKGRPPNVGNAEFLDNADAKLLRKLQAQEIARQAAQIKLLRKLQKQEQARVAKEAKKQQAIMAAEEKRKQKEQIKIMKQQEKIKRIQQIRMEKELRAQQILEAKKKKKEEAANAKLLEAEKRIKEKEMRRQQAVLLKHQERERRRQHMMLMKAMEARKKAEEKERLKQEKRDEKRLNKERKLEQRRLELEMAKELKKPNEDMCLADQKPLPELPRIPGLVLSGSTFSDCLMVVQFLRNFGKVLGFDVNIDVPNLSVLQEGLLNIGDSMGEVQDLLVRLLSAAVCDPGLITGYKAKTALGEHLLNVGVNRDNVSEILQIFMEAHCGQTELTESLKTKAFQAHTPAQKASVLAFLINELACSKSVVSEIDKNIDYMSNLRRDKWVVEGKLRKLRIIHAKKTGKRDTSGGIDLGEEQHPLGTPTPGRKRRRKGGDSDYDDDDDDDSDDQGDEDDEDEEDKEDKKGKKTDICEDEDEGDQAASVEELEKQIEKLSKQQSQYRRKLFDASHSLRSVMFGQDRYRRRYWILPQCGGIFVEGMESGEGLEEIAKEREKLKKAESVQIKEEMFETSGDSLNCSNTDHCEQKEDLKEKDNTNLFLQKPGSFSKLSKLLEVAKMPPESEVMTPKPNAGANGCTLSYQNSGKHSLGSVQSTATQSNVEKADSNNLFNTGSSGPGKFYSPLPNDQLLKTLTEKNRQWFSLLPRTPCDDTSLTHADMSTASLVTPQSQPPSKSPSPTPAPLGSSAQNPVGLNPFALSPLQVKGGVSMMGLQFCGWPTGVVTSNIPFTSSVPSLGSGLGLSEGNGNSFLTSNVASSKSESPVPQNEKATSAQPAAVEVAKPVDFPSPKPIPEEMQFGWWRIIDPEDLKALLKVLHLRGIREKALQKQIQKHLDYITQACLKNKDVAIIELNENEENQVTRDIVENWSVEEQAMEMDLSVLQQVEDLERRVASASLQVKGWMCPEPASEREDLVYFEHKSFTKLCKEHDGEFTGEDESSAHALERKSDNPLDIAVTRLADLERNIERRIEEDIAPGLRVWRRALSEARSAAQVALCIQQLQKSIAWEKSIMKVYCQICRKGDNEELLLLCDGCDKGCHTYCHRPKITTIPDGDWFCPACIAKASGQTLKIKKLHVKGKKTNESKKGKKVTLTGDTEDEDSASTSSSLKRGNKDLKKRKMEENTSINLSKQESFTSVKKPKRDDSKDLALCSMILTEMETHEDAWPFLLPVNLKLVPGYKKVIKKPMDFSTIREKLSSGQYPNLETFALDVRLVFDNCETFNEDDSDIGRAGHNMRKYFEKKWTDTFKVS
Summary of the method: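 AlphaScreen luminescence quantifies BAZ2B engagement of H3K14Ac peptide; the protein and biotinylated peptide are both at 50 nM final, buffer PBS pH 7.4 with 0.01% Tween-20, all steps at room temperature.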
Potency is the fitted concentration of half-maximal effect; tags give direction and shape of the fitted curve.

Q: With `Cc1ccccc1OC1C(=O)N(CC2CCCO2)C1c1ccc2c(c1)OCO2` (stereo not drawn) as the molecule, how does the Potency read?
A: inconclusive: 100 µM [inhibitor, single point]

Q: Which Potency does the source give for `O=C(O)c1ccc(COc2ccccc2C=C2C(=O)c3ccccc3C2=O)cc1` here?
A: inactive

Q: `O=C(NCc1cccs1)c1ccc(CSc2nc3ccncc3n2Cc2ccccc2)cc1` was tested. Which Potency did it give?
A: inactive

Q: `CC1CCC(NC(=O)c2ccc(CS(=O)(=O)c3cccc(C(F)(F)F)c3)o2)CC1` (stereo not drawn) was tested. Which Potency did it give?
A: inconclusive: 89.1 µM [inhibitor, single point]

Q: Which Potency does the source give for `CCCCC(CC)CNCc1cccn1CCN1CCOCC1` (stereo not drawn) here?
A: inconclusive: 44.7 µM [inhibitor, partial curve]

Q: `COc1cc(NC(=O)CNS(=O)(=O)c2cccs2)cc(OC)c1OC` was tested. Which Potency did it give?
A: inactive

Q: For `COc1cccc(C2SCC(=O)N2c2ccc(Cl)cc2)c1OC` (stereo not drawn), which Potency is on record?
A: inactive

Q: Which Potency does the source give for `N#Cc1c(-n2ncnc2-c2ccccc2C(F)(F)F)sc2c1CCCCC2` here?
A: inconclusive: 3.16 µM [inhibitor, full curve]

Q: How did the Potency turn out when `CCCN(CCC)C(=O)CSc1nc2n[nH]c(C)c2c(=N)n1-c1ccc(OC)cc1` was run?
A: inconclusive: 56.2 µM [inhibitor, partial curve]

Q: Which Potency does the source give for `Cc1ccccc1Oc1ccccc1N` here?
A: inconclusive: 79.4 µM [inhibitor, single point]

Q: How did the Potency turn out when `COc1ccc(NC(=O)Cn2ncc(Cl)c(Cl)c2=O)cc1S(=O)(=O)N1CCOCC1` was run?
A: inconclusive: 79.4 µM [inhibitor, single point]

Q: Which Potency does the source give for `Cc1ccc(S(=O)(=O)NCc2ccc(C(=O)NCCN(Cc3ccccc3)C(C)C)cc2)cc1` here?
A: inconclusive: 79.4 µM [inhibitor, single point]

Q: With `CCCC(=O)NCc1cc(-c2nn(C)c(=O)c3ccccc23)ccc1C` as the molecule, how does the Potency read?
A: inconclusive: 89.1 µM [inhibitor, single point]

Q: With `CCOc1cc(-c2ccc(OC(=O)c3ccc(C)cc3)c(OC)c2)cc(=O)c2c(C)oc(C)c12` as the molecule, how does the Potency read?
A: active: 39.8 µM

Q: `Nc1c(-c2nc(-c3ccccc3)no2)nnn1CC(=O)Nc1cccc(F)c1` was tested. Which Potency did it give?
A: inactive

Q: With `CN(Cc1c(C(=O)N(C)Cc2ccccc2)nc2ccccn12)CC1Cc2ccccc2O1` (stereo not drawn) as the molecule, how does the Potency read?
A: inconclusive: 35.5 µM [inhibitor, partial curve]

Q: For `Oc1c(C=Nc2cccc3nsnc23)ccc2ccccc12`, which Potency is on record?
A: active: 50.1 µM

Q: With `O=C(CSc1ccc(Br)cc1)Nc1cccc(S(=O)(=O)N2CCOCC2)c1` as the molecule, how does the Potency read?
A: inactive

Q: How did the Potency turn out when `Cc1ccc(/C([O-])=C(/C(=S)Nc2ccc(SC(F)F)cc2)[n+]2ccccc2)cc1[N+](=O)[O-]` was run?
A: inconclusive: 50.1 µM [inhibitor, partial curve]

Q: `CC(C)c1onc(C(=O)N2C(C)CCCC2C)c1[N+](=O)[O-]` (stereo not drawn) was tested. Which Potency did it give?
A: inactive

Q: Which Potency does the source give for `Cc1cc(C)c2c(CC(=O)Nc3ccc(S(=O)(=O)N4CCCCC4)cc3)coc2c1` here?
A: inconclusive: 22.4 µM [inhibitor, full curve]

Q: With `O=c1oc2cc(OCc3nn[nH]n3)ccc2c2c1CCCC2` as the molecule, how does the Potency read?
A: inactive

Q: With `COc1cc(Cl)c(CN2CCCC(CO)(Cc3cccc(Cl)c3)C2)cc1OC` (stereo not drawn) as the molecule, how does the Potency read?
A: inconclusive: 89.1 µM [inhibitor, single point]

Q: `COc1ccccc1NC(=O)Cn1c(CCC(=O)O)ccc1-c1ccccc1` was tested. Which Potency did it give?
A: inconclusive: 89.1 µM [inhibitor, single point]

Q: `Cc1ccc(/C=C/C(=O)N2CCN(Cc3ccccc3)CC2)o1` was tested. Which Potency did it give?
A: inconclusive: 89.1 µM [inhibitor, single point]

Q: For `CCOc1ccc(CCNC(=O)c2cc3c(s2)-c2c(C)cccc2OC3)cc1`, which Potency is on record?
A: inactive

Q: `CN1/C(=C/C(=O)C2CCC2)Sc2ccccc21` was tested. Which Potency did it give?
A: inconclusive: 89.1 µM [inhibitor, single point]

Q: How did the Potency turn out when `O=C(CN1C(=O)CCc2cc(S(=O)(=O)N3CCOCC3)ccc21)NCc1ccc(Cl)cc1` was run?
A: inactive

Q: How did the Potency turn out when `CCN(CC)c1ccc(-n2cc3c(=O)n(C)c(=O)n(C)c3c2)cc1` was run?
A: active: 31.6 µM

Q: For `Cc1cccc(N2CCN(C(=O)C3CCN(c4ncnc5c4nc4n5CCCCC4)CC3)CC2)c1C`, which Potency is on record?
A: inconclusive: 44.7 µM [inhibitor, partial curve]

Q: How did the Potency turn out when `CCc1ccc(NC(=O)Nc2nnc(N(C)C3CCCCC3)s2)cc1` was run?
A: inactive

Q: How did the Potency turn out when `Cc1ccc(OC(C)C(=O)N/N=C/c2ccccn2)cc1` (stereo not drawn) was run?
A: active: 70.8 µM

Q: With `CCCC/C(O)=C1\C(=O)CCCC1=NCCc1c(C)[nH]c2ccc(OC)cc12` as the molecule, how does the Potency read?
A: inconclusive: 50.1 µM [inhibitor, partial curve]

Q: Which Potency does the source give for `Cc1ccsc1/C=N/N=C/c1sccc1C` here?
A: inactive

Q: Which Potency does the source give for `O=C(OCC(=O)N1CCN(C(=O)c2ccco2)CC1)c1ccccc1NCCO` here?
A: inconclusive: 89.1 µM [inhibitor, single point]

Q: For `Cn1c(N)c(C(=O)NCc2ccccc2Cl)sc1=S`, which Potency is on record?
A: inactive

Q: `O=C(NC(=S)N1CCN(Cc2ccccc2)CC1)c1ccco1` was tested. Which Potency did it give?
A: inactive

Q: For `CSc1ccccc1NC(=O)C1CCN(S(C)(=O)=O)CC1`, which Potency is on record?
A: inactive

Q: For `CCc1cc2c(COC(=O)CCNS(=O)(=O)c3cccc(C(F)(F)F)c3)cc(=O)oc2cc1O`, which Potency is on record?
A: inactive

Q: Which Potency does the source give for `C(=N\Nc1ccccc1)/c1ccc(N2CCOCC2)cc1` here?
A: inactive

Q: `CC1(C)CC(=O)C(C=Nc2ccc(C(=O)c3ccccc3)cc2N=CC2=C(O)CC(C)(C)CC2=O)=C(O)C1` was tested. Which Potency did it give?
A: inconclusive: 70.8 µM [inhibitor, partial curve]

Q: For `CC1Cc2cc(/C(O)=C3/C(=O)C(=O)N(CCCn4ccnc4)C3c3ccc(Br)cc3)ccc2O1` (stereo not drawn), which Potency is on record?
A: inactive

Q: For `Cc1nc2cccnc2n1-c1cccc(C(=O)NCCc2ccc(S(N)(=O)=O)cc2)c1`, which Potency is on record?
A: inactive

Q: How did the Potency turn out when `Cn1c(SCC(=O)NCc2ccccc2)nnc1-c1ccc(NC(=O)CCc2ccccc2)cc1` was run?
A: inconclusive: 89.1 µM [inhibitor, single point]

Q: With `COc1ccc(CCNC(=O)c2nn(C)c3c2CS(=O)(=O)c2ccccc2-3)c(OC)c1` as the molecule, how does the Potency read?
A: active: 50.1 µM

Q: `COC(=O)c1c(NC(=S)NN2CCN(C)CC2)sc2c1CCC(C)C2` (stereo not drawn) was tested. Which Potency did it give?
A: inconclusive: 50.1 µM [inhibitor, partial curve]

Q: `CC(=O)Nc1ccc(NC(=O)C(C)OC(=O)c2ccc(C)s2)cc1` (stereo not drawn) was tested. Which Potency did it give?
A: inconclusive: 89.1 µM [inhibitor, single point]

Q: Which Potency does the source give for `COc1ccccc1NC(=O)CSc1nccn1Cc1ccccc1` here?
A: inconclusive: 44.7 µM [inhibitor, partial curve]

Q: How did the Potency turn out when `Oc1ccc2ccccc2c1CNn1cnnc1` was run?
A: inactive

Q: Which Potency does the source give for `COc1ccc(CNCc2ccncc2)c(OC)c1` here?
A: inactive

Q: How did the Potency turn out when `CCc1ccc(NC(=O)CCc2nnc3n(C)c(=O)c4sccc4n23)cc1` was run?
A: inactive

Q: With `CCOC(=O)c1sc2nc(SCC(=O)N(CC)CC)n(CCCN3CCCC3=O)c(=O)c2c1C` as the molecule, how does the Potency read?
A: active: 79.4 µM

Q: With `O=[N+]([O-])c1cc([N+](=O)[O-])c(Oc2cccc(Cl)c2Cl)cc1NN1CCCCC1` as the molecule, how does the Potency read?
A: inconclusive: 3.98 µM [inhibitor, full curve]

Q: How did the Potency turn out when `Cc1cccc(NC(=O)c2ccc(N3CCOCC3)c([N+](=O)[O-])c2)n1` was run?
A: inconclusive: 70.8 µM [inhibitor, single point]

Q: How did the Potency turn out when `CN(C)S(=O)(=O)c1ccc(N2CCCC2)c(C(=O)NNC(=O)COc2ccc(Cl)cc2)c1` was run?
A: inactive

Q: With `O=C(/C=C/c1cn(-c2ccccc2)nc1-c1ccc2c(c1)OCCO2)NCCCN1CCOCC1` as the molecule, how does the Potency read?
A: inconclusive: 70.8 µM [inhibitor, single point]

Q: For `CC1CCc2sc(-c3n[nH]c(=S)o3)cc2C1` (stereo not drawn), which Potency is on record?
A: inconclusive: 79.4 µM [inhibitor, single point]

Q: Which Potency does the source give for `O=C(Nc1cccc(S(=O)(=O)NC2=NCCC2)c1)c1cc(-c2ccccn2)nc2ccccc12` here?
A: inconclusive: 3.16 µM [inhibitor, full curve]

Q: How did the Potency turn out when `CCCc1nc(SCC(=O)N2CCc3ccccc32)c2c(=O)n(C)c(=O)n(C)c2n1` was run?
A: inactive

Q: `Cc1cc(C(=O)NNC(=S)NCc2ccco2)nn1C` was tested. Which Potency did it give?
A: inactive

Q: For `O=C(OC1CCOC1=O)c1ccccc1C(=O)c1ccc(Cl)c([N+](=O)[O-])c1` (stereo not drawn), which Potency is on record?
A: inconclusive: 89.1 µM [inhibitor, single point]

Q: Which Potency does the source give for `Cc1ccc(NC(=O)CN2C(=O)COc3ccc(S(=O)(=O)Nc4ccccc4)cc32)c(C)c1` here?
A: inactive

Q: Which Potency does the source give for `Oc1ccc(C2Nc3cccc4cccc(c34)N2)c(O)c1` here?
A: inconclusive: 50.1 µM [inhibitor, partial curve]

Q: `O=C(CSc1nnc(Cc2ccccc2)n1Cc1ccco1)NC12CC3CC(CC(C3)C1)C2` was tested. Which Potency did it give?
A: inconclusive: 70.8 µM [inhibitor, single point]

Q: Which Potency does the source give for `O=C(CCCC(=O)N/N=C\c1ccccn1)N/N=C\c1ccccn1` here?
A: inconclusive: 89.1 µM [inhibitor, single point]

Q: For `COc1ccc(NC(=O)Cn2nnc3sc4c(c3c2=O)CCCC4)cc1`, which Potency is on record?
A: inactive

Q: For `Cc1ccc(C(=O)N/N=C/c2cc(Br)ccc2O)cn1`, which Potency is on record?
A: active: 7.94 µM

Q: Which Potency does the source give for `CC1(C)CC(=O)C2=C(C1)Oc1nc3ccccc3cc1C2C(C#N)C#N` (stereo not drawn) here?
A: inconclusive: 89.1 µM [inhibitor, single point]

Q: For `COc1cccc(C(=O)N2CCN(Cc3cc(Br)ccc3OC)CC2)c1`, which Potency is on record?
A: active: 28.2 µM

Q: For `COc1ccc(C2/C(=C(/O)c3ccc(Br)cc3)C(=O)C(=O)N2C)cc1OC` (stereo not drawn), which Potency is on record?
A: inconclusive: 89.1 µM [inhibitor, single point]

Q: `CN(CCCOc1ccccc1F)Cc1ccccc1` was tested. Which Potency did it give?
A: active: 56.2 µM

Q: For `CO[C@H]1C=CO[C@@]2(C)Oc3c(C)c(O)c4c(O)c(c5c(nc6cc(C)ccn65)c4c3C2=O)NC(=O)C(C)=CC=C[C@H](C)[C@H](O)[C@@H](C)[C@@H](O)[C@@H](C)[C@H](OC(C)=O)[C@@H]1C`, which Potency is on record?
A: inconclusive: 79.4 µM [inhibitor, single point]

Q: With `CCC(CC)COC(=O)C1=C(C)NC(=O)NC1c1ccc(N(C)C)cc1` (stereo not drawn) as the molecule, how does the Potency read?
A: inconclusive: 22.4 µM [inhibitor, full curve]
